Source: PubChem BioAssay AID1963576 (National Center for Advancing Translational Sciences (NCATS), 2024)
Screen size: about 46,000 compounds; about 60 (0.1%) were called active. About 3% were inconclusive and are not listed. The call rests on the fitted dose curve; in most records, active means well fitted inhibition curve with a large enough effect; inconclusive means small, poorly fitted or top-dose-only effect; inactive means no such curve, though single readings can be large or run the other way. The list shows a part of the results.

assay: Primary qHTS assay for Inhibitors of ovarian cancer metastasis using an organotypic tumor microenvironment (TME) model.; further: nearly all actives have a fitted effect of over 65% in size;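 on activity change, negative = inhibition: plate controls were DMSO wells for no effect and tomatine positive control wells for full effect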; conditions: SKOV3ip1-GFP adhesion/invasion on 3D omental model, fluorescence; series mostly up to 45.8 µM; activity change, negative = inhibition: at the top concentration
Procedure, shortened: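 A 3D layer of primary human omental fibroblasts, mesothelial cells, fibronectin and collagen I, grown 48 hr, received SKOV3ip1-GFP cells in serum-free medium plus compounds at 0.36-46 umol/L. After 2 hr RT and 16 hr 37 C, fixed adherent GFP cells were counted; normalized to DMSO and tomatine.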

outcome, inactive:
CCn1c2ccccc2c2nnc(SCC(=O)Nc3ccccc3OC)nc21, COc1ccc(-c2cc(C(F)(F)F)n3nc(C(=O)OC(C)C)cc3n2)cc1, COc1ccccc1CNC(=O)c1cc(S(=O)(=O)N2CCCCCC2)cn1C, Cc1cccc(NC(=O)CSc2cn(CC(=O)N3CCC(C)CC3)c3ccccc23)c1C, CCc1cccc(NC(=O)c2cc(S(=O)(=O)N3CCCCCC3)cn2C)c1, CC(C)(C)C(=O)NC1CC(=O)N(c2ccc3c(c2)OCCO3)C1 (configuration not stated), COc1cccc(-c2cc(C(F)(F)F)n3nc(-c4ccc(C)cc4)cc3n2)c1, CC(C)NC(=O)Cc1csc2nc(-c3ccccc3)cn12, COc1cc2c(cc1OC)C(COc1ccc(F)cc1)N(C(=O)C(C)C)CC2 (configuration not stated), Cc1nc2nc(CNC(=O)c3cccc(F)c3)nn2c(C)c1CCC(=O)Nc1ccc(F)cc1, Cc1ccccc1C(=O)NCC(c1ccc(N(C)C)cc1)N1CCCC1 (configuration not stated), O=C(CCS(=O)(=O)c1ccc(Br)s1)Nc1c(F)cccc1F, O=C(NCc1ccc(F)cc1)c1ccc2c(c1)N(Cc1ccc(F)cc1Cl)C(=O)CS2, COc1ccc(NC(=O)Nc2nnc(SCC(=O)Nc3cccc(C)c3C)s2)cc1, CCOC(=O)CC(NC(=O)c1cc2cc(OC)ccc2oc1=O)c1ccc(OC)cc1 (configuration not stated), Cc1cccc(OCC(=O)OCc2cc(=O)n3nc(C4CC4)sc3n2)c1, CC1CCN(C(=O)CN2CCSc3ccc(S(=O)(=O)N(C)C)cc32)CC1, CCOC(=O)c1c(C)oc2ncnc(Nc3ccc(CC)cc3)c12, CCOc1ccc(CNC(=O)CCS(=O)(=O)c2cc3c4c(c2)CCN4C(=O)CC3)cc1, O=C(C1CCN(S(=O)(=O)c2cccc3nonc23)CC1)N1CCN(c2ccc(F)cc2)CC1, CCc1ccc(OC(=O)CSc2nnc(-c3ccc4c(c3)OCO4)o2)cc1, CCn1c(CN2CCC(C)CC2)nc2cc(NC(=O)c3ccccc3[N+](=O)[O-])ccc21, COc1cccc(-c2cn3c(n2)sc2cc(C(=O)NCc4cccs4)ccc23)c1

Activity change, negative = inhibition, inactive:
CCOC(=O)c1ccc(NC(=O)C2CCN(S(=O)(=O)c3ccc4c(c3)CCCC(=O)N4)CC2)cc1 12.4%, CCOc1ccccc1CNC(=O)c1cc(-c2ccc(Cl)s2)nc2ccccc12 2.48%, O=S(=O)(NCC(c1cccs1)S(=O)(=O)c1ccccc1)c1ccc(F)cc1 (configuration not stated) -13.1%, Cc1c(C2=CCN(S(=O)(=O)c3ccc(Cl)cc3)CC2)c2ccccc2n1CC(=O)N1CCCC1 16.9%, Cc1cc2c(n1-c1ccc(C(=O)NCCc3ccc(Cl)cc3)cc1)CCC(C)C2 (configuration not stated) 4.17%, CCOC(=O)c1cccc(NC(=O)CC2C(=O)N(c3ccccc3)C(=O)N2Cc2ccco2)c1 (configuration not stated) -9.4%, CCc1ccc2oc(C(=O)Nc3nc(-c4ccc(F)cc4)ns3)c(C)c2c1 -3.15%, CNC(=O)c1ccc(-c2nc(CN3CCc4ccccc43)c(C)o2)cc1 -13.2%, CC(=O)Nc1ccc(Nc2nc3ccc(Cl)cc3n3cnnc23)cc1 -3.76%, Cc1c(Cl)cccc1NC(=O)C(C)n1nc(C)c2c(C)n(-c3ccccc3)nc2c1=O (configuration not stated) 1.51%, Cc1cccc(OCC(=O)Nc2ccc(OCc3cc(=O)n4cc(C)ccc4n3)cc2)c1 9.25%, CCC1CCCCN1C(=O)CSc1n[nH]c(-c2ccccc2)n1 (configuration not stated) -12.4%, COc1ccc(N(Cc2nnc3n2CCCCC3)C(=O)Nc2ccc(Cl)cc2)cc1Cl 3.94%, O=C(CC1(O)C(=O)N(CCc2ccccc2)c2ccc(Br)cc21)c1ccccc1 (configuration not stated) -1.19%, COc1ccc(OC)c(NC(=O)c2ccc3nc(C(C)C)oc3c2)c1 12.6%, Cc1cccc(N2CCN(S(=O)(=O)c3nnc(NC(=O)c4ccc(Cl)cc4)s3)CC2)c1 4.22%, CC(=O)c1cccc(NC(=O)Cn2c(-c3cncs3)nc3ccccc32)c1 5.16%, Fc1ccccc1-n1ncc2c1ncn1nc(COc3ccc(Cl)cc3)nc21 -0.662%, O=C1CC(c2nnc(Cc3ccc(F)cc3)o2)CN1c1ccccc1 (configuration not stated) 8.64%, COc1ccccc1N1CCN(C(=O)c2cc3c(s2)-c2ccccc2OC3)CC1 -8.48%, COc1ccccc1NC(=O)c1sc2nc(C)c(C(=O)Nc3ccc(Cl)cc3)c(-c3ccc(Br)cc3)c2c1N -0.925%, Cc1ccccc1CN1CCC(CNC(=O)c2cc3ccc4cccnc4c3[nH]2)CC1 -30.1%, O=C1CCc2cc(S(=O)(=O)NC(C(=O)Nc3ccc(F)cc3)c3ccccc3)ccc2N1 (configuration not stated) 13.6%, CCN(c1ccccc1)S(=O)(=O)c1ccc(NC(=O)c2cc(=O)c3c(C)cc(C)cc3o2)cc1 5.41%, CNS(=O)(=O)c1ccc(NC(=O)c2nc3nc(C)cc(C(F)F)n3n2)cc1 -9.89%, Cc1noc(Cn2c(=O)c3cc4c(cc3n(CC(=O)Nc3ccc(C(C)C)cc3)c2=O)OCO4)n1 -5.16%, CC(C)c1cnc2c(c1SCc1ccc([N+](=O)[O-])cc1)c(=O)n(C)c(=O)n2C -3.09%, O=c1n(Cc2ccccc2)nc2n1-c1ccccc1OC2 -10.9%, CCOc1ccc(NS(=O)(=O)c2ccc3[nH]cc(C(=O)N4CCCC4)c(=O)c3c2)cc1 -0.684%, Fc1ccc(Nc2nc(SCc3ccc(Cl)cc3)nc3ccccc23)cc1 -17.9%, COc1ccc(S(=O)(=O)N(Cc2nc(-c3ccccc3)no2)C2CCCCC2)cc1 -8.17%, C=C1C(=O)OC2C=C(C)CCC=C(C)CCC12 (configuration not stated) -21.5%, COc1cc(C2CC(=O)N(c3ccc(C)c(Cl)c3)C3=C2C(=O)OC3)cc(OC)c1OC (configuration not stated) -12%, O=S(=O)(NCC(c1ccco1)S(=O)(=O)c1ccccc1)c1cc(F)ccc1F (configuration not stated) -10.9%, Cc1cccc(-c2noc(-c3cccnc3NCc3ccccc3Cl)n2)c1 0.637%, CNC(=O)C1CCC(Cn2c(=O)c3sccc3n(CC(=O)N3CCCCC3C)c2=O)CC1 (configuration not stated) -10.6%, Cc1cc(N2CCN(c3ccccc3F)CC2)n2cnnc2n1 -2.22%, CCC(=O)N[C@H]1CC[C@H](C(=O)N(C)c2ccc(-c3nc4ccccc4o3)cc2)C1 1.35%, CCCCOc1ccc(NC(=O)CSc2ccc(C(=O)O)cn2)cc1 -1.72%, CCOC(=O)c1ccc(NC(=O)Nc2cccc(OCc3cc(=O)n4ccc(C)cc4n3)c2)cc1 -3.07%, COc1ccc(NC(=O)CCc2nc3cccnc3n2Cc2cccs2)c(OC)c1 6.57%, CC(C)CCSc1nc2c(c(=O)n(C)c(=O)n2C)n1Cc1ccccc1Cl 0.96%, O=C(NCCn1cc(SCc2ccc(C(F)(F)F)cc2)c2ccccc21)c1ccccc1F -3.52%, Cc1ccc(CN2C(=O)SC(Nc3ccccc3)C2=O)cc1 (configuration not stated) 0.252%, COc1cccc(CNC(=O)CCn2ccc3cc(S(=O)(=O)N4CCCC4)ccc32)c1 2.61%, CCCSc1ncc(Cl)c(C(=O)Nc2ccc(OC)cc2OC)n1 -8.54%, CCOc1ccc(NC(=O)CCn2c(-c3ccc(F)cc3)cc(C(C)=O)c2C)cc1 -5.43%, Cc1ccc(C2C=C(c3ccc(Cl)cc3)Nc3nc(NC(=O)CCC(=O)O)nn32)cc1 (configuration not stated) -8.69%, O=S(=O)(NCCc1ccc(Cl)cc1)c1ccc(N2CCCCS2(=O)=O)cc1 -6.07%, COc1ccc(C2=C(C)C(=O)N(Cc3ccc(C(=O)NCc4ccccc4C)cc3)S2(=O)=O)cc1 -9.01%, CCn1cnc2c(=O)oc3ccc(S(=O)(=O)N4CCN(c5cc(C)ccc5C)CC4)cc3c21 0.773%, CCC(C)Cn1c(COc2ccc(OC)cc2)nc2ccccc21 (configuration not stated) -2.84%, COc1ccccc1OCCCn1c(-c2ccc(Cl)cc2)nc2ccccc2c1=O 2.54%, CCCOc1ccc(C(=O)Nc2cc3nn(-c4ccc(CC)cc4)nc3cc2C)cc1 0.634%, O=C(CSc1nnc(-c2ccccc2)c(-c2ccccc2)n1)Nc1ccccc1Cl 10%, O=C(CCC(=O)N1CC2CCCN2c2ccccc21)NCc1ccccc1F (configuration not stated) -7.63%, Cc1cccc(C(=O)Nc2nnc(S(=O)(=O)N3CCC(C)CC3)s2)c1 0.777%, COc1ccc(-c2cc(C(=O)Nc3ccc(C#N)cc3)no2)cc1 0.469%, CCOC(=O)Cc1c(C)nc2c(-c3ccc(OC)c(OC)c3)c(C)nn2c1C -7.5%, CC(=O)c1ccc(NC(=O)C(Cc2ccccc2)NS(=O)(=O)c2ccc3c(c2)CCC(=O)N3)cc1 (configuration not stated) 34.4%, CCC(=O)N1CCc2cc(S(=O)(=O)NCCC(=O)NC(C)c3ccccc3)ccc21 (configuration not stated) 7.22%, Cc1cc(C)cc(OC(=O)c2cc(-c3ccc4c(c3)OCCO4)on2)c1 4.78%, COc1ccc(/C=C/c2nc(-c3ccccc3O)n(-c3ccccc3)n2)cc1OC 4.03%, Cc1ccc(NC(=O)C(=O)NCC(c2cccnc2)N2CCOCC2)cc1C (configuration not stated) 3.74%, CCS(=O)(=O)N1CCc2cc(C(=O)N3CCN(c4cccc(C(F)(F)F)c4)CC3)ccc21 -7.52%, CCOc1ccc(-n2c(Cc3ccccc3)nnc2SCc2nc(-c3ccccc3C)no2)cc1 13.5%, CC(=O)NCCNC(=O)CCCc1nnc2n(CCC(C)C)c(=O)c3sccc3n12 3.8%, Cc1ccc(C)c(Cn2c(=O)c3c(nc4n3CCN4c3ccc(F)cc3)n(C)c2=O)c1 2.52%, Fc1cccc(-c2nc(-c3ccncc3)no2)c1 2.03%, Cc1ccc(C(=O)c2oc3ccccc3c2NC(=O)c2cc(=O)c3ccccc3o2)cc1 1.06%, Oc1cccc(C(Nc2ccccn2)c2ccc3cccnc3c2O)c1Cl (configuration not stated) -3.63%, CCOCCCNC(=O)C(c1ccc(OC)cc1)N(Cc1cccs1)C(=O)c1ccc(NC(C)=O)cc1 (configuration not stated) -8.37%, COc1ccc(CNC(=O)Cn2ccc3cc(S(=O)(=O)N4CCCCCC4)ccc32)cc1OC -4.2%, COc1ccc2oc(=O)cc(CN3CCN(C(=O)c4ccccc4F)CC3)c2c1 16.7%
